Laboratory results taken from PMC4336329 (PLoS ONE, 2015).
The whole screen tested about 310,000 compounds, of which about 14,000 (4.5%) showed an effect of 50% or more. Effects have a minus sign here. The list shows a part of the results.

These compounds were tested against human ether-à-go-go-related gene (hERG) potassium channel (human, UniProt Q12809) (assay: primary screen, population patch clamp on CHO cells stably expressing hERG).
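Further: peak tail current of the secondary pulse compared with the same well before compound.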

Sequence of human ether-à-go-go-related gene (hERG) potassium channel (Q12809 whole entry, looked up): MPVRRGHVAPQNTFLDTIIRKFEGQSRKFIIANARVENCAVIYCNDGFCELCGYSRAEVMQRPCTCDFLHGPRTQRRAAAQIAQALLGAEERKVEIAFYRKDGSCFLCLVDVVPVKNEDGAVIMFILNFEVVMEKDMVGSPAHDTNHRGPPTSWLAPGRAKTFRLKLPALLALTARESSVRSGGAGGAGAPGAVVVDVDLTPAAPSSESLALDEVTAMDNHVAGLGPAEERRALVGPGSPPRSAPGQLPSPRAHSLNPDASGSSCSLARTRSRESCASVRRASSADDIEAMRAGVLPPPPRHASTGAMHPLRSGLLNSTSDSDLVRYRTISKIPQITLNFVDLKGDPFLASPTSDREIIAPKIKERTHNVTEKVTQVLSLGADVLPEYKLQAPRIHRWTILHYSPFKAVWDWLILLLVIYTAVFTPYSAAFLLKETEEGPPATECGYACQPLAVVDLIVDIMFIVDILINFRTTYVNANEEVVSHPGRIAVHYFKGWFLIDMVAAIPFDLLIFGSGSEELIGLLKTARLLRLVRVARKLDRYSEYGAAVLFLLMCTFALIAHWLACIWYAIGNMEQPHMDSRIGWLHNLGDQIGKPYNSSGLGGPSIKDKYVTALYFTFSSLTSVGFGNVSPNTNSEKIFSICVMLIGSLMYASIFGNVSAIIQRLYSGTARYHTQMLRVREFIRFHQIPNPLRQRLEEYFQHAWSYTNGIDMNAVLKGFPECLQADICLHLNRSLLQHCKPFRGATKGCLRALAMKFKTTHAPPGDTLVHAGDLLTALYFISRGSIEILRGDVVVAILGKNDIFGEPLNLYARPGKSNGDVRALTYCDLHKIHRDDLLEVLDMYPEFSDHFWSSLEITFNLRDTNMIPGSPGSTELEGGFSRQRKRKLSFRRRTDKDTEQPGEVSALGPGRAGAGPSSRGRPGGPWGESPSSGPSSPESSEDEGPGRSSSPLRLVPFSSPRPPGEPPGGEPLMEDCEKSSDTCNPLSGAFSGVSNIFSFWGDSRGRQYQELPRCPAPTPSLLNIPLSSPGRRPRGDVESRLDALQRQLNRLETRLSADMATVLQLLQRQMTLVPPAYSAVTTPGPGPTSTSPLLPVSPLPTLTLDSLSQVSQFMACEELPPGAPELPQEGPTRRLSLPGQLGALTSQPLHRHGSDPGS

Compound	hERG current change (%, negative = inhibition) at 10uM
NC(=S)N/N=C/c1ccc(-n2nncc2-c2ccc(Cl)cc2)cc1	-9.69%
O=C1/C(=C/c2ccc([N+](=O)[O-])cc2)N2CCC1CC2	-20.6%
CCNc1ccc([N+](=O)[O-])cc1	4.89%
CC(C)c1ccc(NC(=S)NN(c2ccccc2)c2ccccc2)cc1	12.7%
c1ccc([C@@H]2CO2)cc1	20.7%
O=C(Nc1cccs1)NC1CCCC1	4.35%
CCCCCCCNC(=O)c1ccc(N2CCC3(CC2)OCCO3)c([N+](=O)[O-])c1	-15.1%
CC(=O)O.CC(NO)/C(=N\O)c1cccs1 (stereo not shown)	9.65%
COC(=O)C1=C(c2ccc(OC)c(OC)c2)C[C@@H]2CC[C@H]1N2C(=O)NCc1cccc2ccccc12	-10.5%
Cc1ccc(OCC(=O)N2CCN(S(C)(=O)=O)CC2)cc1	1.32%
Brc1ccc(-[n+]2c(-c3ccccc3)cc(-c3ccccc3)cc2-c2ccccc2)cc1.[O-][Cl+3]([O-])([O-])[O-]	-73.8%
COc1ccc(S(N)(=O)=O)cc1C(=O)OCC1CCCCC1	-28%
CC1CCCCC12NC(=O)N(CC(=O)N1CCN(C(=O)c3cccs3)CC1)C2=O (stereo not shown)	8.03%
COc1cccc(/C=C2\CCC(C3CCCC3)C2=O)c1 (stereo not shown)	9.44%
O=C(CN1CC[n+]2c(-c3cccs3)csc21)c1ccc(-c2ccccc2)cc1.[Br-]	-54.3%
CCO/C=C1\C(=O)N(CC)c2ccccc21	1.58%
CCC(C(=O)NCc1ccncc1)c1ccccc1 (stereo not shown)	13.7%
O=C(O)/C=C/C(=O)NCCCc1ccccc1	-6.6%
O=C(Nc1cccc2cccc(NC(=O)c3ccco3)c12)c1ccco1	7.14%
Cc1ccc(C2=C(O)c3ccccc3C(=O)C2=O)cc1	13.6%

Compound	hERG current change (%, negative = inhibition) at 10uM
O=C(COC(=O)CCCSc1nc2ccccc2[nH]1)Nc1cccc(F)c1	-11%
COc1ccc(CCNC(=O)CSc2ccsc2[N+](=O)[O-])cc1OC	4.43%
CCCc1c(O)nc(SCCN(CC)CC)[nH]c1=O.Cl	18.9%
Cc1nc(C)c(-c2csc(Nc3ccc(C(=O)O)c(O)c3)n2)s1	14.9%
Cc1c(NC(=O)c2nn(C)c(=O)c3ccccc23)c(=O)n(-c2ccccc2)n1C	15.3%
O=C1c2ccccc2CN1CCSC(=S)N1CCSCC1	2.67%
Cc1ccc(-c2ccc(S(=O)(=O)Nc3cccnc3)cc2)cc1	6.46%
CC1CCN(C(=S)c2ccc3c(c2)OCO3)CC1	-1.08%
CN1CCN(C(=O)COc2ccc(S(=O)(=O)N(C)Cc3ccccc3)cc2)CC1	-30.7%
Cl.N=c1sccn1CC(=O)Nc1ccc(Cl)cc1[N+](=O)[O-]	-21%
O=C(C1=C[C@@H](c2coc3ccccc3c2=O)C[C@@H](OCCCCO)O1)N1CCOCC1	7.47%
Cc1ccc(C(=C2C3C=CC2C2C(=O)NC(=O)C32)c2ccc(C)cc2)cc1 (stereo not shown)	6.93%
COC(=O)C1=C(N)OC2=C(C(=O)CC(C)(C)C2)C1c1ccccc1OC (stereo not shown)	11.2%
CSCCC(NC(=O)c1cccc(S(=O)(=O)N2CCOCC2)c1)C(=O)Nc1ccc(F)cc1 (stereo not shown)	-18.2%
Cc1ccc2c(COC(=O)c3ccccc3Br)cc(=O)oc2c1	20.8%
COCCNC(=O)C(=O)Nc1cc2c3c(c1)C(C)C(=O)N3CCC2 (stereo not shown)	-0.505%
Nc1nc(-c2ccc(Oc3ccccc3)cc2)cs1	-4.26%
O=C(Nc1ccccc1O)c1nc(Cl)ccc1Cl	21.7%
O=C(O)CNC(=O)CC1S/C(=N/N=C2\CSC(=O)N2)NC1=O (stereo not shown)	9.57%
CCOC(=O)CSc1nnc([C@@H](NC(=O)OC(C)(C)C)C(C)C)o1	11.3%

Compound	hERG current change (%, negative = inhibition) at 10uM
CCNc1nc(NC#N)nc(SCC(=O)OCC)n1	-2.05%
O=C(NCc1ccccc1)C1CC2CCCC(C1)C2=O (stereo not shown)	12%
COc1ccc(/C=N\NC(=O)c2ccc(=O)[nH]n2)cc1O	18.4%
COc1cccc(CN2CCC(C(=O)N3CCC(C)CC3)CC2)c1.O=C(O)C(=O)O	-11%
CCc1cccc(NS(=O)(=O)c2ccc3c(c2)oc(=O)n3C)c1	-8.3%
COC(=O)c1ccccc1NC(=O)C1CC(c2ccccc2O)=NO1 (stereo not shown)	1.61%
CC(=O)c1c(C)[nH]c(C(=O)OCC(=O)C(C)(C)C)c1C	-2.38%
COc1ccc(C(=O)N2CCN(C)C(=O)[C@@H]2C)cc1OC1CCN(C(C)C)CC1	9.56%
CC(=NCCCN1CCOCC1)c1c(O)n(Cc2ccccc2)c(=O)[nH]c1=O	-19.5%
CCN(CC)CCOCCOc1ccc(Cl)c2ccccc12	-68%
O=C(/C=C/c1ccc(Cl)cc1)N1CCN(Cc2ccccc2)CC1	-35.6%
CCOc1ccc(CSCCNC(=S)Nc2ccccc2)cc1	-6.35%
Cc1cc(C)cc(NC(=O)CCc2c(C)nn(-c3ccc(N4CCOCC4)nn3)c2C)c1	-5.1%
CS(=O)(=O)c1ccc2c(c1)SC1=NC(=O)/C(=C/c3ccco3)C(=N)N12	27.1%
COc1ccc(S(=O)(=O)Nc2ccc3c(c2)OCO3)cc1C	-9.09%
Cc1ccc(C(=O)N2CCN(c3ccc([N+](=O)[O-])c(NCc4ccco4)c3)CC2)cc1	-50.5%
S=C(Nc1ccc2c(c1)OCO2)N1CCN(Cc2ccco2)CC1	14%
O=C(O)CN1C(=O)/C(=C\c2cn(CC(=O)N3CCOCC3)c3ccccc23)SC1=S	1.29%
